{
  "source": "the supplement of paper PMC12217912",
  "parents": {"B1": {"name": "TEV protease; numbered along this chain (parent)", "chain": "MGESLFKGPRDYNPISSSICHLTNESDGHTTSLYGIGFGPFIITNKHLFRRNNGTLVVQSLHGVFKVKDTTTLQQHLVDGRDMIIIRMPKDFPPFPQKLKFREPQREERICLVTTNFQTKSMSSMVSDTSCTFPSGDGIFWKHWIQTKDGQCGSPLVSTRDGFIVGIHSASNFTNTNNYFTSVPKNFMELLTNQEAQQWVSGWRLNADSVLWGGHKVFMVKPEEPFQPVKEATQL"}},
  "note": "The other results are listed elsewhere or left out. The full chains were built here from the parent and the listed change. Values near 0.05 are background.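 Further: Bxb1 expression induced with 0.2% (w/v) L-rhamnose at OD600 near 0.5, cultures sampled hourly, flipped fraction per protease–substrate barcode pair counted by paired-end Illumina sequencing.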",
  "data": [
    {"variants_of": "B1", "test": "raw area under fraction-flipped curve 0-4 h after induction (AUC4h, not background-subtracted), DNA-recorder readout of cleavage of the substrate (dimensionless); higher = more cleavage of the substrate by the protease variant", "settings": "temperature: 34 °C; time window: 0-4 h after rhamnose induction", "values": [
      {"variant": "G153C", "area with substrate ENLYFES": 0.0576, "area with substrate ENLYFFS": 0.0581, "area with substrate ENLYFHS": 0.054, "area with substrate ENLYFIS": 0.0533, "area with substrate ENLYFKS": 0.0433, "area with substrate ENLYFMS": 0.0558, "area with substrate ENLYFPS": 0.0509, "area with substrate ENLYFTS": 0.0542, "area with substrate ENLYFVS": 0.0535, "area with substrate ENLYFWS": 0.0384},
      {"variant": "L61F", "area with substrate ENLYFES": 0.0561, "area with substrate ENLYFPS": 0.0633, "area with substrate ENLYFWS": 0.0695},
      {"variant": "L99E", "area with substrate ENLYFES": 0.057, "area with substrate ENLYFIS": 0.0566, "area with substrate ENLYFTS": 0.0517, "area with substrate ENLYFWS": 0.053, "area with substrate ENLYFYS": 0.0809},
      {"variant": "G2N", "area with substrate ENLYFES": 0.0339, "area with substrate ENLYFMS": 0.0758, "area with substrate ENLYFYS": 0.0349},
      {"variant": "I164V", "area with substrate ENLYFES": 0.0688, "area with substrate ENLYFHS": 0.0535, "area with substrate ENLYFPS": 0.0591},
      {"variant": "F163A", "area with substrate ENLYFES": 0.0679, "area with substrate ENLYFNS": 0.0599},
      {"variant": "G138W", "area with substrate ENLYFES": 0.0594, "area with substrate ENLYFIS": 0.0547, "area with substrate ENLYFKS": 0.0557, "area with substrate ENLYFMS": 0.0608, "area with substrate ENLYFNS": 0.0809, "area with substrate ENLYFRS": 0.0502, "area with substrate ENLYFTS": 0.0607, "area with substrate ENLYFVS": 0.0108, "area with substrate ENLYFWS": 0.0509},
      {"variant": "S171K", "area with substrate ENLYFES": 0.0834, "area with substrate ENLYFIS": 0.0535, "area with substrate ENLYFKS": 0.0608, "area with substrate ENLYFLS": 0.0452, "area with substrate ENLYFMS": 0.0666, "area with substrate ENLYFRS": 0.0525},
      {"variant": "V58M", "area with substrate ENLYFES": 0.0698, "area with substrate ENLYFFS": 0.0762, "area with substrate ENLYFGS": 0.0533, "area with substrate ENLYFHS": 0.0353, "area with substrate ENLYFSS": 0.0668, "area with substrate ENLYFTS": 0.0571},
      {"variant": "T129D", "area with substrate ENLYFES": 0.0564, "area with substrate ENLYFMS": 0.0688, "area with substrate ENLYFNS": 0.0703, "area with substrate ENLYFPS": 0.0685, "area with substrate ENLYFTS": 0.0397},
      {"variant": "S135L", "area with substrate ENLYFES": 0.0574, "area with substrate ENLYFFS": 0.0714, "area with substrate ENLYFKS": 0.0734, "area with substrate ENLYFMS": 0.0445, "area with substrate ENLYFNS": 0.0593, "area with substrate ENLYFPS": 0.0568, "area with substrate ENLYFRS": 0.0652, "area with substrate ENLYFSS": 0.0809, "area with substrate ENLYFVS": 0.0577},
      {"variant": "V229D", "area with substrate ENLYFES": 0.0684, "area with substrate ENLYFIS": 0.051, "area with substrate ENLYFKS": 0.0752, "area with substrate ENLYFLS": 0.0724, "area with substrate ENLYFMS": 0.0616, "area with substrate ENLYFNS": 0.0626, "area with substrate ENLYFRS": 0.0527, "area with substrate ENLYFSS": 0.0674, "area with substrate ENLYFTS": 0.0756, "area with substrate ENLYFVS": 0.0591, "area with substrate ENLYFWS": 0.0578},
      {"variant": "E103P", "area with substrate ENLYFES": 0.0749, "area with substrate ENLYFIS": 0.0619, "area with substrate ENLYFMS": 0.0648, "area with substrate ENLYFPS": 0.0402, "area with substrate ENLYFSS": 0.0815, "area with substrate ENLYFVS": 0.012},
      {"variant": "V200D", "area with substrate ENLYFES": 0.0587, "area with substrate ENLYFFS": 0.07, "area with substrate ENLYFGS": 0.06, "area with substrate ENLYFIS": 0.0569, "area with substrate ENLYFKS": 0.0458, "area with substrate ENLYFLS": 0.0669, "area with substrate ENLYFMS": 0.057, "area with substrate ENLYFPS": 0.0586, "area with substrate ENLYFVS": 0.0485},
      {"variant": "F140S", "area with substrate ENLYFES": 0.0618, "area with substrate ENLYFHS": 0.0477, "area with substrate ENLYFIS": 0.0557, "area with substrate ENLYFKS": 0.0625, "area with substrate ENLYFLS": 0.0623, "area with substrate ENLYFMS": 0.0536, "area with substrate ENLYFNS": 0.0312, "area with substrate ENLYFPS": 0.0516, "area with substrate ENLYFTS": 0.0598},
      {"variant": "P134R", "area with substrate ENLYFES": 0.0493, "area with substrate ENLYFGS": 0.0559, "area with substrate ENLYFHS": 0.0762, "area with substrate ENLYFIS": 0.0608, "area with substrate ENLYFKS": 0.0552, "area with substrate ENLYFLS": 0.0601, "area with substrate ENLYFMS": 0.0621, "area with substrate ENLYFPS": 0.0623, "area with substrate ENLYFRS": 0.0537, "area with substrate ENLYFTS": 0.0655, "area with substrate ENLYFVS": 0.0565, "area with substrate ENLYFWS": 0.0613},
      {"variant": "P222L", "area with substrate ENLYFES": 0.0557, "area with substrate ENLYFIS": 0.0743, "area with substrate ENLYFKS": 0.0626, "area with substrate ENLYFMS": 0.062, "area with substrate ENLYFPS": 0.0625, "area with substrate ENLYFRS": 0.0559, "area with substrate ENLYFSS": 0.0679},
      {"variant": "N177T", "area with substrate ENLYFES": 0.0657, "area with substrate ENLYFGS": 0.0476, "area with substrate ENLYFHS": 0.0586, "area with substrate ENLYFIS": 0.0378, "area with substrate ENLYFMS": 0.0835, "area with substrate ENLYFPS": 0.0557, "area with substrate ENLYFRS": 0.055, "area with substrate ENLYFWS": 0.0555, "area with substrate ENLYFYS": 0.0444},
      {"variant": "C131W", "area with substrate ENLYFES": 0.0767, "area with substrate ENLYFFS": 0.0615, "area with substrate ENLYFLS": 0.0637, "area with substrate ENLYFNS": 0.0596, "area with substrate ENLYFPS": 0.0593, "area with substrate ENLYFWS": 0.0572},
      {"variant": "K230A", "area with substrate ENLYFES": 0.0684, "area with substrate ENLYFFS": 0.0769, "area with substrate ENLYFIS": 0.056, "area with substrate ENLYFMS": 0.0625, "area with substrate ENLYFNS": 0.0632, "area with substrate ENLYFPS": 0.0597, "area with substrate ENLYFSS": 0.052},
      {"variant": "G80L", "area with substrate ENLYFES": 0.0671, "area with substrate ENLYFHS": 0.0633, "area with substrate ENLYFIS": 0.0476, "area with substrate ENLYFMS": 0.0624, "area with substrate ENLYFNS": 0.0732, "area with substrate ENLYFPS": 0.0627, "area with substrate ENLYFVS": 0.0617, "area with substrate ENLYFWS": 0.053},
      {"variant": "Y179D", "area with substrate ENLYFES": 0.0506, "area with substrate ENLYFMS": 0.0423, "area with substrate ENLYFPS": 0.0531},
      {"variant": "V57I", "area with substrate ENLYFES": 0.0601, "area with substrate ENLYFFS": 0.0675, "area with substrate ENLYFGS": 0.0621, "area with substrate ENLYFHS": 0.0458, "area with substrate ENLYFIS": 0.0719, "area with substrate ENLYFKS": 0.0521, "area with substrate ENLYFLS": 0.0663, "area with substrate ENLYFMS": 0.0585, "area with substrate ENLYFNS": 0.0668, "area with substrate ENLYFPS": 0.0619, "area with substrate ENLYFRS": 0.0631, "area with substrate ENLYFTS": 0.0636, "area with substrate ENLYFVS": 0.0451, "area with substrate ENLYFWS": 0.0582}
    ]}
  ]
}
